Lines with a small IC50 respond at low doses; a fit beyond the top or the lowest dose is shown as a bound at that dose. AUC is the area under the same curve over the 256-fold range up to the top dose, as a fraction; values near 1 show little effect. For some of these results: An inferred top dose is not printed in the source and was worked back from the curve model. For some of these results: Where an entry number is given, a second screen of the drug exists; the two often differ.
Columns and labels:
Assay in all cases: Viability of human cancer cell lines after 72 h of drug (GDSC screen)
Tretinoin = compound: CC1=C(/C=C/C(C)=C/C=C/C(C)=C/C(=O)O)C(C)(C)CCC1 [Tretinoin]; settings: top dose 10 µM; top dose inferred
Description: (§1)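 Human cancer cell lines in 384-well plates, medium with 10% serum, drug for 72 h over a 256-fold dose range (nine 2-fold or five 4-fold steps up to the top dose). Adherent lines were fixed and stained with the nucleic acid dye Syto60, suspension lines read with resazurin; signal relative to control wells, capped at 0 and 100%. One two-parameter sigmoid per drug and line, fitted in a mixed model over all curves with the slope shared within a line.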

GSK690693 = compound: CCn1c(-c2nonc2N)nc2c(C#CC(C)(C)O)ncc(OC[C@H]3CCCNC3)c21 [GSK690693]; settings: top dose 10.24 µM; top dose inferred
Description: as §1

UNC0638 = compound: COc1cc2c(NC3CCN(C(C)C)CC3)nc(C3CCCCC3)nc2cc1OCCCN1CCCC1 [UNC0638]
Description: as §1

SB-505124 = compound: Cc1cccc(-c2[nH]c(C(C)(C)C)nc2-c2ccc3c(c2)OCO3)n1 [SB-505124]; settings: top dose 10 µM; top dose inferred
Description: as §1

BX-795 = compound: O=C(NCCCNc1nc(Nc2cccc(NC(=O)N3CCCC3)c2)ncc1I)c1cccs1 [BX-795]; settings: top dose 5 µM; top dose inferred
Description: as §1

PI-103 = compound: Oc1cccc(-c2nc(N3CCOCC3)c3oc4ncccc4c3n2)c1 [PI-103]; settings: top dose 10.24 µM
Description: as §1

[1] = top dose 20 µM, screen: GDSC drug entry 1236, top dose inferred
[2] = top dose 40 µM, screen: GDSC drug entry 245

Cell Line	AUC (Tretinoin)	IC50 (Tretinoin)	AUC (GSK690693)	IC50 (GSK690693)	AUC (UNC0638; [1])	IC50 (UNC0638; [1])	AUC (UNC0638; [2])	IC50 (UNC0638; [2])	AUC (SB-505124)	IC50 (SB-505124)	AUC (BX-795)	IC50 (BX-795)	AUC (PI-103)	IC50 (PI-103)
SUIT-2 (pancreas, adherent)	0.981	> 10 µM	0.976	> 10.2 µM	0.842	15.1 µM	0.647	6.54 µM	0.985	> 10 µM	0.896	> 5 µM	0.984	> 10.2 µM
SW13 (adrenal gland, adherent)	0.909	> 10 µM	0.988	> 10.2 µM	0.85	15.4 µM	0.977	> 40 µM	0.898	> 10 µM	0.953	> 5 µM	0.959	> 10.2 µM
SW48 (large intestine, adherent)	0.984	> 10 µM	0.987	> 10.2 µM	0.947	> 20 µM	0.843	28.2 µM	0.981	> 10 µM	0.78	2.05 µM	0.844	7.27 µM
SW620 (large intestine, adherent)	0.99	> 10 µM	0.977	> 10.2 µM	0.978	> 20 µM	0.808	17.8 µM	0.975	> 10 µM	0.889	4.55 µM	0.68	1.9 µM
SW626 (ovary, adherent)	0.984	> 10 µM	0.932	> 10.2 µM	0.924	> 20 µM	0.785	20.7 µM	0.932	> 10 µM	0.947	> 5 µM	0.429	0.394 µM
SW756 (cervix, adherent)	0.985	> 10 µM	0.984	> 10.2 µM	0.983	> 20 µM	0.966	> 40 µM	0.975	> 10 µM	0.932	> 5 µM	0.945	> 10.2 µM
SW780 (bladder, adherent)	0.964	> 10 µM	0.986	> 10.2 µM	0.795	10.3 µM	0.864	> 40 µM	0.984	> 10 µM	0.833	3.63 µM	0.986	> 10.2 µM
SW948 (large intestine, adherent)	0.964	> 10 µM	0.881	> 10.2 µM	0.98	> 20 µM	0.877	> 40 µM	0.98	> 10 µM	0.939	> 5 µM	0.974	> 10.2 µM
SW1271 (small cell lung carcinoma, adherent)	0.984	> 10 µM	0.984	> 10.2 µM	0.862	> 20 µM	0.697	9.79 µM	0.979	> 10 µM	0.835	4.03 µM	0.767	4.36 µM
SW1417 (large intestine, adherent)	0.979	> 10 µM	0.983	> 10.2 µM	0.984	> 20 µM	0.884	> 40 µM	0.985	> 10 µM	0.986	> 5 µM	0.812	6.7 µM
SW1573 (lung adenocarcinoma, adherent)	0.896	> 10 µM	0.964	> 10.2 µM	0.859	> 20 µM	0.899	> 40 µM	0.961	> 10 µM	0.902	> 5 µM	0.883	> 10.2 µM
SW1710 (bladder, adherent)	0.96	> 10 µM	0.936	> 10.2 µM	0.873	> 20 µM	0.856	33.9 µM	0.901	> 10 µM	0.814	2.83 µM	0.308	0.182 µM
SW1783 (glioma, adherent)	0.991	> 10 µM	0.989	> 10.2 µM	0.891	19.3 µM	0.871	31.4 µM	0.917	> 10 µM	0.876	4.13 µM	0.859	7.22 µM
Saos-2 (osteosarcoma, adherent)	0.876	> 10 µM	0.98	> 10.2 µM	0.846	> 20 µM	0.98	> 40 µM	0.887	> 10 µM	0.862	> 5 µM	0.971	> 10.2 µM
SiHa (cervix, adherent)	0.979	> 10 µM	0.987	> 10.2 µM	0.972	> 20 µM	0.974	> 40 µM	0.981	> 10 µM	0.963	> 5 µM	0.987	> 10.2 µM
T47D (breast, adherent)	0.949	> 10 µM	0.563	1.04 µM	0.813	19.2 µM	0.695	11.9 µM	0.884	> 10 µM	0.958	> 5 µM	0.528	0.795 µM
T84 (large intestine, adherent)	0.989	> 10 µM	0.972	> 10.2 µM	0.985	> 20 µM	0.853	32.1 µM	0.966	> 10 µM	0.989	> 5 µM	0.981	> 10.2 µM
T98G (glioma, adherent)	0.98	> 10 µM	0.978	> 10.2 µM	0.982	> 20 µM	0.965	> 40 µM	0.989	> 10 µM	0.813	2.46 µM	0.954	> 10.2 µM
TE-4 (oesophagus, adherent)	0.986	> 10 µM	0.93	> 10.2 µM	0.739	6.01 µM	0.925	> 40 µM	0.952	> 10 µM	0.9	> 5 µM	0.967	> 10.2 µM
TGBC11TKB (stomach, adherent)	0.979	> 10 µM	0.964	> 10.2 µM	0.992	> 20 µM	0.969	> 40 µM	0.968	> 10 µM	0.929	> 5 µM	0.991	> 10.2 µM

Cell Line	AUC (Tretinoin)	IC50 (Tretinoin)	AUC (GSK690693)	IC50 (GSK690693)	AUC (UNC0638; [1])	IC50 (UNC0638; [1])	AUC (UNC0638; [2])	IC50 (UNC0638; [2])	AUC (SB-505124)	IC50 (SB-505124)	AUC (BX-795)	IC50 (BX-795)	AUC (PI-103)	IC50 (PI-103)
TK (B-cell lymphoma, suspension)	0.988	> 10 µM	0.868	7.96 µM	0.803	8.89 µM	0.753	12.3 µM	0.978	> 10 µM	0.986	> 5 µM	0.24	0.124 µM
TMK-1 (stomach, adherent)	0.986	> 10 µM	0.97	> 10.2 µM	0.801	10.5 µM	0.857	35.6 µM	0.984	> 10 µM	0.884	> 5 µM	0.89	> 10.2 µM
TOV-21G (ovary, adherent)	0.964	> 10 µM	0.98	> 10.2 µM	0.979	> 20 µM	0.969	> 40 µM	0.976	> 10 µM	0.618	0.681 µM	0.637	1.59 µM
TOV-112D (ovary, adherent)	0.984	> 10 µM	0.984	> 10.2 µM	0.852	15.6 µM	0.753	13.5 µM	0.843	7.14 µM	0.798	2.39 µM	0.304	0.179 µM
TT2609-C02 (thyroid, adherent)	0.912	> 10 µM	0.982	> 10.2 µM	0.985	> 20 µM	0.715	10.6 µM	0.97	> 10 µM	0.719	1.37 µM	0.616	1.37 µM
TYK-nu (ovary, adherent)	0.984	> 10 µM	0.984	> 10.2 µM	0.825	13.2 µM	0.808	22.4 µM	0.914	> 10 µM	0.828	3.38 µM	0.959	> 10.2 µM
U-118-MG (glioma, adherent)	0.937	> 10 µM	0.916	> 10.2 µM	0.984	> 20 µM	0.867	> 40 µM	0.956	> 10 µM	0.877	> 5 µM	0.427	0.391 µM
UACC-62 (melanoma, adherent)	0.988	> 10 µM	0.984	> 10.2 µM	0.906	> 20 µM	0.975	> 40 µM	0.978	> 10 µM	0.922	> 5 µM	0.869	9.27 µM
UACC-893 (breast, adherent)	0.927	> 10 µM	0.579	1.13 µM	0.98	> 20 µM	0.807	29.7 µM	0.98	> 10 µM	0.978	> 5 µM	0.616	1.49 µM
UWB1.289 (ovary, adherent)	0.916	> 10 µM	0.941	> 10.2 µM	0.977	> 20 µM	0.855	> 40 µM	0.961	> 10 µM	0.927	> 5 µM	0.739	4.46 µM
VAL (B-cell lymphoma, suspension)	0.987	> 10 µM	0.886	> 10.2 µM	0.77	7.66 µM	0.611	5.06 µM	0.969	> 10 µM	0.868	4.58 µM	0.302	0.177 µM
VMRC-RCZ (kidney, adherent)	0.97	> 10 µM	0.97	> 10.2 µM	0.981	> 20 µM	0.901	> 40 µM	0.98	> 10 µM	0.832	3.95 µM	0.868	> 10.2 µM
WM35 (melanoma, adherent)	0.973	> 10 µM	0.966	> 10.2 µM	0.754	6.79 µM	0.631	5.75 µM	0.985	> 10 µM	0.837	3.4 µM	0.192	0.0767 µM
WM793B (melanoma, adherent)	0.975	> 10 µM	0.948	> 10.2 µM	0.822	13.4 µM	0.664	7.52 µM	0.977	> 10 µM	0.866	> 5 µM	0.441	0.435 µM
WM1552C (melanoma, adherent)	0.963	> 10 µM	0.976	> 10.2 µM	0.809	10.6 µM	0.671	7.49 µM	0.986	> 10 µM	0.904	> 5 µM	0.333	0.219 µM
WM-115 (melanoma, adherent)	0.878	> 10 µM	0.861	> 10.2 µM	0.8	12.2 µM	0.675	8.66 µM	0.971	> 10 µM	0.824	–	0.345	0.216 µM
YAPC (pancreas, adherent)	0.974	> 10 µM	0.963	> 10.2 µM	0.873	> 20 µM	0.792	23.1 µM	0.98	> 10 µM	0.907	> 5 µM	0.973	> 10.2 µM
YH-13 (glioma, adherent)	0.864	9.58 µM	0.912	> 10.2 µM	0.861	18.6 µM	0.875	> 40 µM	0.945	> 10 µM	0.618	0.673 µM	0.559	0.934 µM
YKG-1 (glioma, adherent)	0.97	> 10 µM	0.898	> 10.2 µM	0.909	> 20 µM	0.865	36.1 µM	0.981	> 10 µM	0.778	2.06 µM	0.43	0.41 µM
huH-1 (liver, adherent)	0.968	> 10 µM	0.984	> 10.2 µM	0.972	> 20 µM	0.984	> 40 µM	0.982	> 10 µM	0.816	3.63 µM	0.984	> 10.2 µM

Reference: the supplement of paper PMC4967469
